This is one part of the list. These are further read-outs of the screen, such as a control signal, another cell line or another target. No call is given for them.
Experiments:
Assay in all cases: Primary Screen for Target Class Profiling of Small Molecule Inhibitors of Methyltransferases
[1] = target: Glycine N-methyltransferase (Homo sapiens) (UniProt Q14749); conditions: purified enzyme, MTase-Glo SAH luminescence; measured here: GNMT inhibition; at 40 µM; stronger effect = lower value
Procedure, shortened: (§1)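 Each enzyme was assayed with SAM and its substrate. SAH formation detected by MTase-Glo luminescence; single-point 40 uM screen[…].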

[2] = target: Guanidinoacetate N-methyltransferase (Homo sapiens) (UniProt Q14353); conditions: purified enzyme, MTase-Glo SAH luminescence; measured here: GAMT inhibition; at 40 µM; stronger effect = lower value
Procedure, shortened: as §1

[3] = target: Histamine N-methyltransferase (Homo sapiens) (UniProt P50135); conditions: purified enzyme, MTase-Glo SAH luminescence; measured here: HNMT inhibition; at 40 µM; stronger effect = lower value
Procedure, shortened: as §1

[4] = target: Nicotinamide N-methyltransferase (Homo sapiens) (UniProt P40261); conditions: purified enzyme, MTase-Glo SAH luminescence; measured here: NNMT inhibition; at 40 µM; stronger effect = lower value
Procedure, shortened: as §1

[5] = target: Phenylethanolamine N-methyltransferase (Homo sapiens) (UniProt P11086); conditions: purified enzyme, MTase-Glo SAH luminescence; measured here: PNMT inhibition; at 40 µM; stronger effect = lower value
Procedure, shortened: as §1
% is scaled to controls: 0 for no effect and ±100 for the full control effect.

Row | Compound | activity change, negative = inhibition [1] [%] | activity change, negative = inhibition [2] [%] | activity change, negative = inhibition [3] [%] | activity change, negative = inhibition [4] [%] | activity change, negative = inhibition [5] [%]
1 | COc1ccc(CN2C(=O)c3cc4oc(C)cc4n3CC2(C)C(=O)NC2CCCCC2)cc1 (stereo not given) | -0.036 | 0 | 2.76 | -6.44 | 0.209
2 | C=C1C(O)C(O)C2(CC3C(C)=CCC4C(C)(CO)CCCC34C)OC2C1O (stereo not given) | -3.45 | -2.17 | 9.54 | -18.4 | -13.2
3 | COCc1nc(CCNC(=O)C2CC2)no1 | -0.696 | -3.56 | 1.55 | 1.8 | -0.439
4 | O=C(Cn1c(=O)oc2cc(S(=O)(=O)N3CCCC3)ccc21)Nc1ccccn1 | -0.294 | 4.25 | 5.46 | 8.64 | -5.01
5 | COc1ccc(NC(=O)Nc2cnc3c(c2)CCC3)cc1 | -6.23 | -4.41 | -32.7 | 0.26 | -5.47
6 | CN(Cc1ccccc1)c1ccc(C(=O)N2CCC(CN3CCCC3=O)CC2)cn1 | -3.89 | -2.02 | -2.55 | -9.88 | -3.27
7 | O=C(Nc1ccc(F)cc1)N1CCc2ccccc2C1c1ccc(C(F)(F)F)cc1 (stereo not given) | -9.14 | -35.2 | -1.99 | -46.3 | -9.69
8 | C=C1C(=O)O[C@@H]2/C=C(\CO)CC/C=C(\CO)[C@H](OC(C)=O)C(OC(=O)C(C)CC)C12 (stereo not given in full) | 3.21 | 6 | 5.57 | -8.41 | 4.98
9 | C=C(C)C(C)C1OC23CC4(CO2)C(CCC2C5(C)CCC(OC6OCC(O)C(OC7OC(CO)C(O)C(OC8OCC(O)C(O)C8O)C7O)C6OC6OC(CO)C(O)C6O)C(C)(C)C5CCC24C)C3C(C)(O)C1OC(C)=O (stereo not given) | 4.47 | 14.5 | 6.54 | 2.14 | 11.6
10 | C=C1C(OC(C)=O)C(=O)C2C(C)(C)C(OC(C)=O)CCC2(C)C1CC(OC(C)=O)/C(C)=C/COC(C)=O (stereo not given) | -3.89 | -3.17 | 3.09 | -12.9 | 0.899
11 | COc1ccc(CNC(=O)c2cc3n(n2)CC(C)(C(=O)NCc2ccc(C)cc2)N(C)C3=O)cc1OC (stereo not given) | -0.143 | 3.65 | 0.465 | 3.93 | 2.81
12 | CCS(=O)(=O)N1CCC2(CCC2OC)CC1 (stereo not given) | -2.94 | 0.171 | 0.945 | -5.55 | -8.65
13 | COc1cccc(CN2Cc3cc(NS(=O)(=O)c4ccccc4)ccc3OCC2=O)c1OC | -9.09 | -7.87 | -6.5 | -11.7 | -13.2
14 | CC1(C(=O)NC2CCCCCC2)Cn2c(cc3sccc32)C(=O)N1C1CCCC1 (stereo not given) | 4.37 | 0 | 8.78 | 11.4 | 5.36
15 | CC(C)CCNC(=O)C1(C)Cn2nc(C(=O)NCc3ccc(N(C)C)cc3)cc2C(=O)N1C (stereo not given) | 10.7 | 0.256 | 9.48 | 0.202 | 6.32
16 | CC(C)c1ccc2c(c1)C(=O)CC1C(C)(C(=O)O)CCCC21C (stereo not given) | -3.19 | -8.82 | 3.18 | -22.1 | -4.61
17 | O=C(C[C@@H]1C(C(=O)O)=CO[C@@H](O[C@@H]2O[C@H](CO)[C@@H](O)[C@H](O)[C@H]2O)/C1=C\CO)OCCc1ccc(O)cc1 | -0.178 | 1.64 | 1.73 | -10.1 | 6.05
18 | COc1ccc(CCN2C(=O)c3cc4occc4n3CC2(C)C(=O)NC2CCCCCC2)c(OC)c1 (stereo not given) | -5.89 | 2.38 | -0.707 | -10.6 | -4.82
19 | Cc1ccc(NC(=O)CSc2nnc3n(C)c(=O)c4ccc(C(=O)NC5CCCCC5)cc4n23)c(C)c1 | 0.754 | 1.71 | 0.226 | 6.15 | 5.27
20 | Cc1noc(-c2cccs2)c1C(=O)NCc1ccco1 | -7.72 | 0.041 | -1.94 | -3.28 | 0.509
21 | COCCNC(=O)c1ncn2c1C(=O)N(C1CC1)C(C)(C(=O)NCc1cccc(C)c1)C2 (stereo not given) | 4.3 | 1.79 | 13.8 | 5.36 | 10
22 | Cc1ccc(Cn2nc3n(Cc4ccc(C)cc4)c(=O)c4ccc(C(=O)NC(C)C)cc4n3c2=O)cc1 | 4.24 | 0 | 3.85 | 6.01 | 4.2
23 | Cc1ccc(C#N)c(N2CCN(C3CCCC3)C(CCO)C2)n1 (stereo not given) | -0.878 | 2.25 | 2.42 | 2.47 | -10
24 | O=C1CCN(C(=O)CCCc2ccccc2)CCCC(CO)CCN1 (stereo not given) | -0.847 | 2.09 | 0.249 | -5.54 | 13.4
25 | CCC(C)NC(=O)c1ccc2c(=O)n(C3CC3)c3nn(CC(=O)Nc4cccc(C)c4)c(=O)n3c2c1 (stereo not given) | -0.29 | 2.12 | 4.89 | -0.374 | -1.62
26 | CC(=O)OC1C(O)CC(O[C@@H]2O[C@H](CO)[C@@H](O)[C@H](O)[C@H]2O)C2CCC3C(=O)OC(c4ccoc4)CC3(C)C21 (stereo not given in full) | 0 | 0.167 | 5.51 | -8.5 | 1.59
27 | CCC(COC)n1nnc2c(Nc3ccc(OC)cc3C)nc(C)cc21 (stereo not given) | 0.544 | 1.74 | 10.5 | -16.6 | -6.03

Row | Compound | activity change, negative = inhibition [1] [%] | activity change, negative = inhibition [2] [%] | activity change, negative = inhibition [3] [%] | activity change, negative = inhibition [4] [%] | activity change, negative = inhibition [5] [%]
28 | CC1(C(=O)NC2CCCCCC2)Cn2c(ccc2-c2ccccc2)C(=O)N1CCC1=CCCCC1 (stereo not given) | -1.92 | 0.943 | -4.45 | 1.04 | -2.61
29 | COc1ccc2cc3n(c2c1)CC(C)(C(=O)NCC1CCCO1)N(Cc1ccc(F)cc1)C3=O (stereo not given) | 5.99 | 0.679 | 8.61 | 6.54 | 4.42
30 | Cc1ccccc1Cn1nc2n(C(C)C)c(=O)c3ccc(C(=O)NC4CCCCC4)cc3n2c1=O | 8.31 | 0.82 | 11.5 | 8.01 | 7.96
31 | COC(=O)CCNC(=O)C1CN(S(=O)(=O)c2cccs2)CC12CCCCC2 (stereo not given) | -5.03 | -2.39 | -1.02 | -2.06 | 1.7
32 | COc1ccccc1CNCCCCCCNCCCCCCCCNCCCCCCNCc1ccccc1OC | -7.36 | 0.887 | -56.1 | -13.4 | -4.63
33 | CC[C@@H](N)CNc1ccnc(-c2cc(-c3cnn(C)c3)ccc2O)n1 | -8.21 | -3.1 | -21.9 | -23.9 | -12
34 | C[C@@H]1O[C@@H](O[C@H]2[C@H](OC(=O)[C@]34CCC(C)(C)C[C@H]3C3=CCC5[C@@]6(C)CC[C@H](O[C@@H]7O[C@H](C(=O)O)[C@@H](O)[C@H](O)[C@H]7O[C@@H]7O[C@H](CO)[C@H](O)[C@H](O)[C@H]7O)[C@@](C)(C=O)C6CC[C@@]5(C)[C@]3(C)C[C@H]4O)O[C@H](C)[C@H](O[C@@H]3O[C@H](C)[C@H](O)[C@H](O)[C@H]3O)[C@@H]2O)[C@H](O)[C@H](O)[C@H]1O[C@@H]1OC[C@@H](O)[C@H](O[C@@H]2O[C@H](CO)[C@@H](O)[C@H](O)[C@H]2O)[C@H]1O (stereo not given in full) | 2.16 | 9.67 | 7.48 | 0.797 | 10.1
35 | COc1cc(OC(F)(F)F)ccc1C(=O)N1CCC(C)(C(=O)O)CC1 | -2.89 | -1.36 | -0.224 | -5.19 | 0.209
36 | CC(C)CN(C1CCN(C)CC1)C1CN(C(=O)c2cccs2)C1 | -1.14 | -0.736 | -6.03 | -8.52 | 13.3
37 | CC1(C)CC2C3=CCC4C5(C)CCC(OC6OC(CO)C(O)C(OC7OC(CO)C(O)C(OC8OC(CO)C(O)C(OC9OC(COC%10OC(CO)C(O)C(O)C%10O)C(O)C(O)C9O)C8O)C7O)C6O)C(C)(C)C5CCC4(C)C3(C)CCC2(C(=O)O)CC1O (stereo not given) | -3.71 | 0.969 | 1.5 | -12.1 | -3.14
38 | C=C1C[C@@]23CC[C@@H]4[C@](C)(C(=O)O)CCC[C@@]4(C)C2=CC[C@H]1C3 | 0 | 2.79 | 11.6 | -16.8 | -1
39 | Cc1noc(C)c1S(=O)(=O)NCCc1noc(-c2ccccc2)n1 | -2.19 | -0.035 | 1.27 | -0.885 | 1.35
40 | CCCCCCOc1cc2c(cc1N(C)c1ncc(C(=O)O)cn1)C(C)(C)CCC2(C)C | 7.45 | 8.92 | 4.82 | -16.7 | 1.62
41 | O=C(Nc1ccc(F)cc1)N[C@H]1[C@H](O)[C@@H](N2CCOCC2)[C@@H]2OC[C@H]1O2 | -1 | -2.39 | 1.31 | -6.31 | 13
42 | CC(C)OCCCn1c(=O)c2ccccc2n2c(-c3ccc(O)cc3)nnc12 | -7.73 | 2.58 | -4.2 | 2.03 | -6.45
43 | CN1CCN(CCN2C(=O)c3ccc(-c4ccco4)n3CC2(C)C(=O)NC2CCCC2)CC1 (stereo not given) | -0.225 | 3.23 | 1.38 | 7.41 | 0.251
44 | CC(C)c1noc(N2CCC(COc3ccc(-c4ccc(S(C)(=O)=O)cc4)nc3)CC2)n1 | 3.01 | 2.87 | 11 | -16.3 | -3.48
45 | CC(C)CCn1c(=O)c2ccccc2n2c(=O)n(CC(=O)NC3CCCCC3)nc12 | -2.37 | 2.44 | 2.65 | -14.5 | -1.93
46 | COc1ccc(C)cc1NC(=O)Cn1c(=O)oc2cc(S(=O)(=O)N3CCCCC3)ccc21 | -2.02 | 0 | 3.41 | -5.06 | -1.93
47 | Cc1ccc(CNC(=O)CSc2nnc3n(CCc4ccccc4)c(=O)c4ccccc4n23)cc1 | 7.04 | 0 | 12.2 | 0.743 | 4.75
48 | CNC(=O)c1cc[nH]c1C1CCCN(C(=O)CCc2nc3ccccc3s2)C1 (stereo not given) | -3.53 | -0.061 | -0.026 | -3.56 | 4.03
49 | CC(C)n1cnnc1CC1CCN(S(=O)(=O)Cc2ccccc2)C1 (stereo not given) | -0.264 | -0.622 | 1.99 | -8.29 | 12.7
50 | CNC(=O)[C@@H]1CN(C(=O)c2n[nH]c3ccccc23)C[C@H]1COC | -1.97 | 0.968 | 0.727 | -3.72 | -1.33
51 | COCC(=O)N1CCc2cc(-c3csc(NC(=O)c4cc(OC)cc(OC)c4)n3)ccc21 | 2.49 | 1.91 | 8.61 | -1.87 | 5.59
52 | CC1(C)CC[C@]2(C(=O)O[C@@H]3O[C@H](CO)[C@@H](O)[C@H](O)[C@H]3O)[C@H](O)C[C@]3(C)C(=CCC4[C@@]5(C)CC[C@H](O[C@@H]6OC[C@@H](O)[C@H](O)[C@H]6O)[C@@](C)(C(=O)O)C5CC[C@]43C)[C@@H]2C1 (stereo not given in full) | 1.36 | 8.99 | 12 | -0.192 | 8.21
53 | O=C1/C(=C/c2ccsc2)CC/C1=C\c1cccs1 | -15.3 | 7.79 | 4.7 | -6.41 | 4.47

Reference: PubChem BioAssay AID1745853 (National Center for Advancing Translational Sciences (NCATS), 2022)
